# PubChem BioAssay AID504832 (National Center for Advancing Translational Sciences (NCATS), 2011)
# About 18,000 (5.8%) of roughly 310,000 compounds were called active. The shares of active, inactive and inconclusive entries below differ from those in the screen. The call rests on the fitted dose curve; in most records, active means well fitted inhibition curve with a large enough effect; inconclusive means small, poorly fitted or top-dose-only effect, or another doubt; inactive means no such curve, though single readings can be large or run the other way. Potencies of inconclusive entries are left out as doubtful fits.
# Assay: Primary qHTS for delayed death inhibitors of the malarial parasite plastid, 48 hour incubation
# Conditions: P. falciparum luciferase growth in erythrocytes; series mostly up to 28.7 µM
# Method in brief: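 Cell-based growth assay: transgenic P. falciparum expressing firefly luciferase, cultured in red cells within RPMI 1640 containing 0.5% w/v Albumax, 24 mM bicarbonate and gentamycin. A drop in luciferase activity indicates inhibition.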
# Potency means the concentration at half of the fitted maximal effect; tags describe the fitted curve by direction and shape.
row,Structure (SMILES),Potency
1,Oc1ccc(C[C@H]2NCCc3cc(O)c(O)cc32)cc1O,"inconclusive [inhibitor, single point]"
2,OC1(c2ccc3c(c2)OCO3)CCN(Cc2ccc(F)cc2)CC1,inactive
3,COc1cccc(CNC(=O)C2CCC(CNS(=O)(=O)c3cccc4cccnc34)CC2)c1 (centres undefined),"inconclusive [inhibitor, partial curve, poor fit]"
4,CC(NC1=NCCS1)c1ccccc1 (centres undefined),"inconclusive [inhibitor, single point]"
5,N#CCCn1cc(/C=C(\C#N)c2nc3ccccc3s2)c(-c2ccc(F)cc2)n1,"inconclusive [inhibitor, single point]"
6,Cc1ccc(Nc2nc(C(=O)N3CCC(C(=O)NC(C)C)CC3)cs2)cc1,inactive
7,CCc1ccc2[nH]c(=O)c(C(c3nnnn3CCOC)N3CCN(c4ccccc4)CC3)cc2c1 (centres undefined),"inconclusive [inhibitor, single point]"
8,COc1ccc(CN(C)C(=O)C23CC4CC(CC(Cl)(C4)C2)C3)c(OC)c1OC,"inconclusive [inhibitor, single point]"
9,COCCCNC(=O)c1sc2ncnc(N3CCc4ccccc4C3)c2c1C,"inconclusive [inhibitor, single point]"
10,O=C(Cc1ccc(Cl)cc1)Nc1cccc(S(=O)(=O)N2CCCCC2)c1,"inconclusive [inhibitor, single point]"
11,C=CCn1c(C2CCCCC2)n[nH]c1=S,inactive
12,COc1ccc(C(=O)NC2CCSc3ccccc32)cc1 (centres undefined),inactive
13,N#Cc1nc(-c2ccco2)oc1NCc1ccccc1Cl,inactive
14,Cc1cc(C)cc(NC(=O)CC23CC4CC(C2)CC(n2nnc(C)n2)(C4)C3)c1,"inconclusive [inhibitor, partial curve]"
15,Cc1ccc(-n2c(C)nnc2SCC(=O)Nc2ccccc2)cc1,"inconclusive [inhibitor, single point]"
16,C(=C\c1ccccc1)/CSc1nnc(-c2ccccn2)n1Cc1ccco1,"inconclusive [inhibitor, single point]"
17,Nc1ncc(Br)cc1S(=O)(=O)NCCC(=O)N1CCN(c2ccccc2)CC1,active: 6.57 µM
18,Cc1ccc2oc(=O)c3cc(C(=O)NCCCN4C(C)CCCC4C)sc3c2c1 (centres undefined),"inconclusive [inhibitor, single point]"
19,CC1(C)CC(=O)C/C(=N/NC(=O)c2ccc(-c3ccccc3)cc2)C1,"inconclusive [inhibitor, partial curve]"
20,O=C(O)c1nn(-c2ccccc2C(F)(F)F)cc1O,"inconclusive [inhibitor, single point]"
21,CCOCCOc1cccc(C(=O)NC(c2ccccc2)c2ccccc2)c1,"inconclusive [inhibitor, single point]"
22,O=C1C=C(c2ccc3[nH]ccc3c2)C[C@@H](c2ccc(Cl)cc2)C1,active: 2.62 µM
23,COCCCn1cn[nH]c1=S,"inconclusive [inhibitor, single point]"
24,O=C(COc1ccccc1)NCC(=O)N/N=C/c1ccc(O)cc1O,"inconclusive [inhibitor, single point]"
25,CCNC(=S)NNC(=O)c1csc(CC)c1,inactive

row,Structure (SMILES),Potency
1,CCCCCCCCCCCCCCCC[n+]1cccc(C(=O)N(CC)CC)c1,active: 5.22 µM
2,Cc1ccc(N=c2c([N+](=O)[O-])nn(-c3ccccc3)n2O)c(C)c1,"inconclusive [inhibitor, full curve]"
3,Cn1nc(C(F)(F)F)cc1-c1ccc(/C=C(\C#N)C(=O)c2ccccc2)s1,inactive
4,Cc1ccc(Nc2nc(N)c([N+](=O)[O-])c(NCCO)n2)cc1,"inconclusive [inhibitor, single point]"
5,Cc1cccc(NC(=O)c2cc(-c3cc(Cl)ccc3O)n[nH]2)c1,active: 2.62 µM
6,CCN(c1ccccc1)S(=O)(=O)c1ccc(OC)c(NC(=O)CNC)c1,inactive
7,CCOc1ccccc1CN1CCCC(CNS(=O)(=O)c2ccc(OC)cc2)C1 (centres undefined),"inconclusive [inhibitor, single point]"
8,COc1ccc(S(=O)(=O)N2CCCCC2)cc1NC(=O)c1cccnc1SC,"inconclusive [inhibitor, partial curve, poor fit]"
9,COc1cc(CC(=O)Oc2ccc3c(c2)OCO3)cc(OC)c1OC,"inconclusive [inhibitor, single point]"
10,O=C(Nc1nn(Cc2ccc(Cl)cc2)cc1Br)c1ccc(COc2ccccc2Cl)o1,"inconclusive [inhibitor, single point]"
11,CCOC(=O)Cc1c(Sc2ccccc2)c2cc(C)ccc2n1C,"inconclusive [inhibitor, single point]"
12,COCCn1c(=S)[nH]c2cc(C(=O)N3CCN(Cc4ccc5c(c4)OCO5)CC3)ccc2c1=O,"inconclusive [inhibitor, partial curve, poor fit]"
13,CC(C)(C)OC(=O)NCCCCCc1nnc(SCc2ccccc2F)o1,"inconclusive [inhibitor, single point]"
14,COc1cc(NC(=O)N2CCNC2=O)cc(C(=O)Nc2cccc(C(F)(F)F)c2)c1,"inconclusive [inhibitor, single point]"
15,CCOc1ccc(NC(=S)N/N=C(\C)Cc2ccc(OC)cc2)cc1,inactive
16,COc1ccc(N2CCN(S(=O)(=O)c3c(C)n(C)c(=O)n(C)c3=O)CC2)cc1,inactive
17,CC(C)(O)C#Cc1ccc(C(=O)N2CCC(C(N)=O)(N3CCCCC3)CC2)o1,inactive
18,O=S(=O)(Nc1ccon1)c1ccc(F)c(F)c1,inactive
19,Cc1ccc(N(CC(=O)NC2CCCC2)C(=O)c2c(C)noc2C)cc1C,inactive
20,O=C(Nc1ccsc1C(=O)N1CCCC1)c1ccccc1,"inconclusive [inhibitor, single point]"
21,CCCOC(=O)c1cccc(NC(=O)C(C)(C)C)c1,inactive
22,O=C(COC(=O)/C=C/c1cccc(C(F)(F)F)c1)NC1CCS(=O)(=O)C1 (centres undefined),inactive
23,COc1ccc(C2=CSC3=NCCN23)cc1[N+](=O)[O-],"inconclusive [inhibitor, full curve, poor fit]"
24,COc1ccc(Cn2cc3c(-c4ccc(F)cc4)nnc-3c3cc(OC)c(OC)cc32)cc1,active: 0.147 µM
25,Cc1ccc2cc(C#N)c(N3CCCN(S(=O)(=O)c4ccc(F)cc4)CC3)nc2c1,"inconclusive [inhibitor, single point]"

row,Structure (SMILES),Potency
1,O=C(COC(=O)c1ccccc1Nc1ccccc1)NCc1ccccc1,"inconclusive [inhibitor, single point]"
2,COc1ccccc1C(=O)Nc1ccnn1C1CCN(C)CC1,inactive
3,S=C(N/N=C/c1cccs1)NC1CC2CCC1C2 (centres undefined),"inconclusive [inhibitor, full curve]"
4,O=C(CSc1nnc(CNC(=O)c2ccccc2)o1)NCC1CCCO1 (centres undefined),inactive
5,CC(C)CC(=O)NC(=S)Nc1ccc(N2CCOCC2)c(Cl)c1,"inconclusive [inhibitor, partial curve]"
6,CCN(Cc1ccccc1)CC(O)COC(c1ccc(OC)cc1)c1ccc(OC)cc1 (centres undefined),active: 14.7 µM
7,O=C1CCC(C(=O)N(CCO)Cc2ccccc2)CN1CC1CCCCC1 (centres undefined),"inconclusive [inhibitor, partial curve, poor fit]"
8,COC(=O)C1CC(O)CN1C(=O)Nc1cccc(C(F)(F)F)c1 (centres undefined),inactive
9,O=S(=O)(NCCC1=CCCCC1)c1ccc(Br)cc1,inactive
10,COCCNc1nnnc2c1sc1nc(N3CCOCC3)c3c(c12)CC(C)(C)OC3,"inconclusive [inhibitor, single point]"
11,O=c1cc(-c2cccc3ccccc23)[nH][nH]1,inactive
12,COc1cc(OC)c(C2N(C)c3ccccc3N2C)cc1OC,"inconclusive [inhibitor, single point]"
13,CNC(=O)c1ccsc1NC(=O)CCS(=O)(=O)c1ccc(Cl)cc1,"inconclusive [inhibitor, single point]"
14,Cc1ccc(NCc2n[nH]c(=S)n2Cc2ccccc2)cc1Cl,inactive
15,O=C(COc1ncnc2ccc(Br)cc12)NCc1ccc2c(c1)OCO2,inactive
16,O=C(NCc1cccnc1)c1cnc2n(c1=O)CCS2,inactive
17,Cn1nnnc1Sc1ncnc2scc(-c3ccccc3Br)c12,"inconclusive [inhibitor, partial curve]"
18,CN1C(C(=O)NCc2ccc(OC(F)(F)F)cc2)CC2Cn3c(nc4cc(Cl)c(Cl)cc43)C21 (centres undefined),"inconclusive [inhibitor, single point]"
19,Cc1ccccc1NC(=O)NC1CCCc2ccccc21 (centres undefined),"inconclusive [inhibitor, single point]"
20,Cc1ccc(-c2ccc(=O)n(CCC(=O)N3CCN(c4cccc(C)c4)C(C)C3)n2)cc1 (centres undefined),"inconclusive [inhibitor, single point]"
21,CC1(C)Cc2c(sc(NC(=O)COc3ccc(Cl)cc3Cl)c2C(N)=O)C(C)(C)N1,active: 10.4 µM
22,O=C(COC(=O)c1cccc(-n2cnnn2)c1)c1ccccc1,inactive
23,Cc1cc(OCC(=O)NCC(c2cccs2)N2CCOCC2)ccc1C(C)C (centres undefined),"inconclusive [inhibitor, single point]"
24,COc1ccccc1N1CCN(C(c2cccs2)C(C)NC(=O)c2ccco2)CC1 (centres undefined),"inconclusive [inhibitor, partial curve]"
